Test results: the supplement of paper PMC12217912
This is one part of the list. The full chains were built here from the parent and the listed change. Values near 0.05 are background.

B1: TEV protease; numbered along this chain (parent)
chain: MGESLFKGPRDYNPISSSICHLTNESDGHTTSLYGIGFGPFIITNKHLFRRNNGTLVVQSLHGVFKVKDTTTLQQHLVDGRDMIIIRMPKDFPPFPQKLKFREPQREERICLVTTNFQTKSMSSMVSDTSCTFPSGDGIFWKHWIQTKDGQCGSPLVSTRDGFIVGIHSASNFTNTNNYFTSVPKNFMELLTNQEAQQWVSGWRLNADSVLWGGHKVFMVKPEEPFQPVKEATQL

Variants of: B1
Assay: raw area under fraction-flipped curve 0-4 h after induction (AUC4h, not background-subtracted), DNA-recorder readout of cleavage of the substrate (dimensionless); higher = more cleavage of the substrate by the protease variant
Settings: temperature: 34 °C; time window: 0-4 h after rhamnose induction
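Further: Bxb1 expression induced with 0.2% (w/v) L-rhamnose at OD600 near 0.5, cultures sampled hourly, flipped fraction per protease–substrate barcode pair counted by paired-end Illumina sequencing.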

Variant	area with substrate ENLCFQS	area with substrate ENLDFQS	area with substrate ENLEFQS	area with substrate ENLFFQS	area with substrate ENLIFQS	area with substrate ENLNFQS	area with substrate ENLRFQS	area with substrate ENLVFQS	area with substrate ENLWFQS	area with substrate ENLGFQS	area with substrate ENLHFQS	area with substrate ENLKFQS	area with substrate ENLMFQS	area with substrate ENLPFQS	area with substrate ENLSFQS	area with substrate ENLLFQS	area with substrate ENLQFQS	area with substrate ENLTFQS
MGESLFKGPRDYNPISSSICHLTNESDGHTTSLYGIGFGPFIITNKHLFRRNNGTLVVQSLHGVFKVKDTTTLQQHLVDGRDMIIIRMPKDFPPFPQKLKFREPQREERICLVTTNFQTKSMSSMVSDTSCTFPSGDGIFWKHWIQTKDGQCGSPLVSTRDGFIVGIHSASNFTNTNNYFTSVPKEFMELLTNQEAQQWVSGWRLNADSVLWGGHKVFMVKPEEPFQPVKEATQL [N186E]	0.0642	0.0699	0.0605	0.0804	0.0816	0.0787	0.0678	0.0602	0.0818									
MGESLFKGPRDYNPISSSICHLTNESDGHTTSLYGIGFGPFIITNKHLFRRNNGTLVVQSLHGVFKVKDTTTLQQHLVDGRDMIIIRMPKDFPPFPQKLKFREPQREERICLVTTNFQTKSMSSMVSDTSCTFPSGDGIFWKHWIQTKDGQCGSPLVSTRDGFIVGIHSASNFTNTNNYFTSVPKWFMELLTNQEAQQWVSGWRLNADSVLWGGHKVFMVKPEEPFQPVKEATQL [N186W]	0.0603	0.046		0.0686	0.059	0.0702	0.0769		0.0622	0.0684	0.0587	0.0659	0.0648	0.0495	0.0779			
MGESLFKGPRDYNPISSSICHLTNESDGHTTSLYGIGFGPFIITNKHLFRRNNGTLVVQSLHGVFKVKDTTTLQQHLVDGRDMIIIRMPKDFPPFPQKLKFREPQREERICLVTTNFQTKSMSSMVSDTSCTFPSGDGIFWKHWIQTKDGQCGSPLVSTRDGFIVGIHSASNFTNTNNYFTSVPKNCMELLTNQEAQQWVSGWRLNADSVLWGGHKVFMVKPEEPFQPVKEATQL [F187C]	0.0564	0.0603		0.0904		0.0685			0.0662	0.068	0.063							
MGESLFKGPRDYNPISSSICHLTNESDGHTTSLYGIGFGPFIITNKHLFRRNNGTLVVQSLHGVFKVKDTTTLQQHLVDGRDMIIIRMPKDFPPFPQKLKFREPQREERICLVTTNFQTKSMSSMVSDTSCTFPSGDGIFWKHWIQTKDGQCGSPLVSTRDGFIVGIHSASNFTNTNNYFTSVPKNFMELLTNQEIQQWVSGWRLNADSVLWGGHKVFMVKPEEPFQPVKEATQL [A196I]	0.0768	0.0634	0.0622	0.0929	0.0903	0.0648	0.0988	0.0846	0.0559		0.0772	0.0456	0.0978	0.0494	0.0619	0.0829	0.0699	0.0707
MGESLFKGPRDYNPISSSICHLTNESDGHTTSLYGIGFGPFIITNKHLFRRNNGTLVVQSLHGVFKVKDTTTLQQHLVDGRDMIIIRMPKDFPPFPQKLKFREPQREERICLVTTNFQTKSMSSMVSDTSCTFPSGDGIFWKHWIQTKDGQCGSPLVSTRDGFIVGIHSASNFTNTNNYFTSVPKNFMELLTNQEAQQWVSMWRLNADSVLWGGHKVFMVKPEEPFQPVKEATQL [G202M]	0.0609	0.0396		0.072		0.0574	0.0653		0.0387		0.0529	0.0675		0.0448		0.0679		
MGESLFKGPRDYNPISSSICHLTNESDGHTTSLYGIGFGPFIITNKHLFRRNNGTLVVQSLHGVFKVKDTTTLQQHLVDGRDMIIIRMPKDFPPFPQKLKFREPQREERICLVTTNFQTKSMSSMVSDTSCTFPSGDGIFWKHWIQTKDGQCGSPLVSTRDGFIVGIHSASNFTNTNNYFTSVPKNFMELLTNQEAQQWVSGERLNADSVLWGGHKVFMVKPEEPFQPVKEATQL [W203E]	0.0643	0.0689	0.0751		0.0636			0.0683				0.0639		0.0687	0.0597		0.0684	
MGESLFKGPRDYNPISSSICHLTNESDGHTTSLYGIGFGPFIITNKHLFRRNNGTLVVQSLHGVFKVKDTTTLQQHLVDGRDMIIIRMPKDFPPFPQKLKFREPQREERICLVTTNFQTKSMSSMVSDTSCTFPSGDGIFWKHWIQTKDGQCGSPLVSTRDGFIVGIHSASNFTNTNNYFTSVPKNFMELLTNQEAQQWVSGWRENADSVLWGGHKVFMVKPEEPFQPVKEATQL [L205E]	0.0675		0.0599	0.0632		0.074	0.0637				0.0697			0.0664		0.0504		
MGESLFKGPRDYNPISSSICHLTNESDGHTTSLYGIGFGPFIITNKHLFRRNNGTLVVQSLHGVFKVKDTTTLQQHLVDGRDMIIIRMPKDFPPFPQKLKFREPQREERICLVTTNFQTKSMSSMVSDTSCTFPSGDGIFWKHWIQTKDGQCGSPLVSTRDGFIVGIHSASNFTNTNNYFTSVPKNFMELLTNQEAQQWVSGWRLNADSVLWGGHKVLMVKPEEPFQPVKEATQL [F218L]	0.0668	0.0584	0.0612	0.0749	0.0677	0.0457	0.0683	0.0698	0.0318		0.066	0.0621	0.0669		0.0626	0.0658	0.0667	
MGESLFKGPRDYNPISSSICHLTNESDGHTTSLYGIGFGPFIITNKHLFRRNNGTLVVQSLHGVFKVKDTTTLQQHLVDGRDMIIIRMPKDFPPFPQKLKFREPQREERICLVTTNFQTKSMSSMVSDTSCTFPSGDGIFWKHWIQTKDGQCGSPLVSTRDGFIVGIHSASNFTNTNNYFTSVPKNFMELLTNQEAQQWVSGWRLNADSVLWGGHKVFMVKPCEPFQPVKEATQL [E223C]	0.0696	0.0543	0.0643	0.0839	0.0924	0.0665					0.0748	0.0773		0.0725	0.101	0.0756	0.0541	
